The target of this assay is purified recombinant murine cortactin WT (murine, UniProt Q60598 1-546). Briefly: pull-down.
UniProt Q60598, sequence (Q60598 whole entry): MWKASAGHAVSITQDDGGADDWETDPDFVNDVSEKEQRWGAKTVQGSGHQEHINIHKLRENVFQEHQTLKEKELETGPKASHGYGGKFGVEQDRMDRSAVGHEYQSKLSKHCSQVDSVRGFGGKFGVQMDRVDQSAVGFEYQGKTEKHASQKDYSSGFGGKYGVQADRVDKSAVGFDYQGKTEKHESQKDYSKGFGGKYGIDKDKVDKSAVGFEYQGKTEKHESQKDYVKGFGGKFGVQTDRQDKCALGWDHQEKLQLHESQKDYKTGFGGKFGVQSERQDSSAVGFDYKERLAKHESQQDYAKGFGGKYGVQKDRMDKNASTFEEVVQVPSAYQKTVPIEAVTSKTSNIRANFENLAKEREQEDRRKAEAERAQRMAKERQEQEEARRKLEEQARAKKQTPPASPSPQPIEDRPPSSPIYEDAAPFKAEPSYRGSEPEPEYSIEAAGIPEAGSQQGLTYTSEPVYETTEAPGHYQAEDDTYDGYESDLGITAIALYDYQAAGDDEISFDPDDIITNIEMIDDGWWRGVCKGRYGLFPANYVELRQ

B1: purified recombinant cofilin (natural protein)
chain: not shown
Broadly, the Kd is the concentration at which binding is half-saturated. Regarding B1, the Kd amounted to 3.5 ± 1.1 µM.

The values above are taken from PMC2733743 (The Journal of Cell Biology, 2009).
